From the supplement of paper PMC4604168 (melanoma cell lines)
This is one part of the list. Single values are uncertain, as repeats are few or missing.

Assays:
Experiment in all cases: cell count relative to DMSO control; melanoma cells; higher = more viable cells
Details in all cases: library dose: low library concentration; 72 h
WM115 = tested on: WM115
WM1716 = tested on: WM1716
WM1745 = tested on: WM1745
WM3526 = tested on: WM3526
WM3619 = tested on: WM3619
WM451Lu = tested on: WM451Lu
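Further: cell number obtained by counting DAPI-stained nuclei in high-throughput microscope images with image analysis software, screen run in 1,536-well plates.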

| SMILES | cell count (WM115) | cell count (WM1716) | cell count (WM1745) | cell count (WM3526) | cell count (WM3619) | cell count (WM451Lu) |
| --- | --- | --- | --- | --- | --- | --- |
| Nc1nc(F)nc2c1ncn2[C@@H]1O[C@H](CO)[C@@H](O)[C@@H]1O [fludarabine] + COc1cc2ncnc(Nc3ccc(Oc4ccccc4)cc3)c2cc1OC [SrcI1] (first compound 0.2 µM, partner dose 2 µM) | 96.3% | 97.6% | 89.3% | 34.1% | 104% | 45.3% |
| CO[C@H]1C[C@@H]2CC[C@@H](C)[C@@](O)(O2)C(=O)C(=O)N2CCCC[C@H]2C(=O)O[C@H]([C@H](C)C[C@@H]2CC[C@@H](OCCO)[C@H](OC)C2)CC(=O)[C@H](C)/C=C(\C)[C@@H](O)[C@@H](OC)C(=O)[C@H](C)C[C@H](C)/C=C/C=C/C=C/1C [everolimus] + OCCn1cc(-c2cnc3nnn(Cc4ccc5ncccc5c4)c3n2)cn1 [PF04217903] (first compound 0.02 µM, partner dose 1 µM) | 79% | 90.1% | 94.7% | 97.4% | 64.1% | 86.4% |
| CO[C@H]1C[C@@H]2CC[C@@H](C)[C@@](O)(O2)C(=O)C(=O)N2CCCC[C@H]2C(=O)O[C@H]([C@H](C)C[C@@H]2CC[C@@H](OCCO)[C@H](OC)C2)CC(=O)[C@H](C)/C=C(\C)[C@@H](O)[C@@H](OC)C(=O)[C@H](C)C[C@H](C)/C=C/C=C/C=C/1C [everolimus] + Nc1ncn([C@H]2C[C@H](O)[C@@H](CO)O2)c(=O)n1 [decitabine] (first compound 0.02 µM, partner dose 0.1 µM) | 86.4% | 69% | 91.7% | 70.7% | 59.7% | 89.4% |
| Nc1nc(F)nc2c1ncn2[C@@H]1O[C@H](CO)[C@@H](O)[C@@H]1O [fludarabine] + Oc1nc(-c2ccc(C(F)(F)F)cc2)nc2c1CSCC2 [XAV939] (first compound 0.2 µM, partner dose 2 µM) | 86.5% | 67.8% | 77.9% | 23.9% | 109% | 45.3% |
| CO[C@H]1C[C@@H]2CC[C@@H](C)[C@@](O)(O2)C(=O)C(=O)N2CCCC[C@H]2C(=O)O[C@H]([C@H](C)C[C@@H]2CC[C@@H](OCCO)[C@H](OC)C2)CC(=O)[C@H](C)/C=C(\C)[C@@H](O)[C@@H](OC)C(=O)[C@H](C)C[C@H](C)/C=C/C=C/C=C/1C [everolimus] + CN(NC(=O)CC(=O)NN(C)C(=S)c1ccccc1)C(=S)c1ccccc1 [STA4783] (first compound 0.02 µM, partner dose 0.006 µM) | 75.3% | 65.3% | 48.7% | 65.6% | 56.6% | 68.1% |
| CC(=O)O[C@@]12CO[C@@H]1C[C@H](O)[C@@]1(C)C(=O)[C@H](O)C3=C(C)[C@@H](OC(=O)[C@H](O)[C@@H](NC(=O)OC(C)(C)C)c4ccccc4)C[C@@](O)([C@@H](OC(=O)c4ccccc4)[C@H]21)C3(C)C [Docetaxel] + Clc1ccc(Nc2nnc(Cc3ccncc3)c3ccccc23)cc1 [vatalanib] (first compound 0.0001 µM, partner dose 2 µM) | 72% | 50.8% | 58.4% | 44% | 69.9% | 76.3% |
| Nc1ncn([C@H]2C[C@H](O)[C@@H](CO)O2)c(=O)n1 [decitabine] + Cn1c(Nc2ccc(C(F)(F)F)cc2)nc2cc(Oc3ccnc(-c4ncc(C(F)(F)F)[nH]4)c3)ccc21 [CHIR265] (first compound 0.1 µM, partner dose 0.08 µM) | 60.6% | 57.8% | 74.5% | 47.2% | 80.9% | 85.9% |
| CC(=O)O[C@@]12CO[C@@H]1C[C@H](O)[C@@]1(C)C(=O)[C@H](O)C3=C(C)[C@@H](OC(=O)[C@H](O)[C@@H](NC(=O)OC(C)(C)C)c4ccccc4)C[C@@](O)([C@@H](OC(=O)c4ccccc4)[C@H]21)C3(C)C [Docetaxel] + Cn1nnc2c(C(N)=O)ncn2c1=O [temozolomide] (first compound 0.0001 µM, partner dose 2 µM) | 61.4% | 32.3% | 48.5% | 35.1% | 56% | 54.1% |
| CO[C@H]1C[C@@H]2CC[C@@H](C)[C@@](O)(O2)C(=O)C(=O)N2CCCC[C@H]2C(=O)O[C@H]([C@H](C)C[C@@H]2CC[C@@H](OCCO)[C@H](OC)C2)CC(=O)[C@H](C)/C=C(\C)[C@@H](O)[C@@H](OC)C(=O)[C@H](C)C[C@H](C)/C=C/C=C/C=C/1C [everolimus] + Cc1ccc(NC(=O)c2cccc(N(C)C)c2)cc1NC(=O)c1ccc(O)cc1 [ZM336372] (first compound 0.02 µM, partner dose 2 µM) | 68.4% | 89.3% | 74.7% | 65.6% | 63% | 99.2% |
| Nc1ncn([C@H]2C[C@H](O)[C@@H](CO)O2)c(=O)n1 [decitabine] + Oc1nc(-c2ccc(C(F)(F)F)cc2)nc2c1CSCC2 [XAV939] (first compound 0.1 µM, partner dose 2 µM) | 78.7% | 52.4% | 81.3% | 77.5% | 85.8% | 104% |
| CC(=O)O[C@@]12CO[C@@H]1C[C@H](O)[C@@]1(C)C(=O)[C@H](O)C3=C(C)[C@@H](OC(=O)[C@H](O)[C@@H](NC(=O)OC(C)(C)C)c4ccccc4)C[C@@](O)([C@@H](OC(=O)c4ccccc4)[C@H]21)C3(C)C [Docetaxel] + Cc1cc(Nc2cc(N3CCN(C)CC3)nc(/C=C/c3ccccc3)n2)n[nH]1 [ENMD2076] (first compound 0.0001 µM, partner dose 0.04 µM) | 77.9% | 56.3% | 63.6% | 60.5% | 62.2% | 95.2% |
| CC(=O)c1c(C)c2cnc(Nc3ccc(N4CCNCC4)cn3)nc2n(C2CCCC2)c1=O [palbociclib] + Cn1nnc2c(C(N)=O)ncn2c1=O [temozolomide] (first compound 0.04 µM, partner dose 2 µM) | 82.6% | 62.9% | 94.1% | 71.6% | 82.3% | 90.3% |
| Nc1nc(F)nc2c1ncn2[C@@H]1O[C@H](CO)[C@@H](O)[C@@H]1O [fludarabine] + COC(=O)c1sccc1S(=O)(=O)Nc1ccc(Nc2ccccc2)cc1OC [GSK0660] (first compound 0.2 µM, partner dose 1 µM) | 100% | 103% | 109% | 27.2% | 102% | 46.9% |
| CC(=O)c1c(C)c2cnc(Nc3ccc(N4CCNCC4)cn3)nc2n(C2CCCC2)c1=O [palbociclib] + O=C(Nc1ccccc1)c1cc([N+](=O)[O-])ccc1Cl [GW9662] (first compound 0.04 µM, partner dose 2 µM) | 68.3% | 50.2% | 81.6% | 63.9% | 48.6% | 59.7% |
| CO[C@H]1C[C@@H]2CC[C@@H](C)[C@@](O)(O2)C(=O)C(=O)N2CCCC[C@H]2C(=O)O[C@H]([C@H](C)C[C@@H]2CC[C@@H](OCCO)[C@H](OC)C2)CC(=O)[C@H](C)/C=C(\C)[C@@H](O)[C@@H](OC)C(=O)[C@H](C)C[C@H](C)/C=C/C=C/C=C/1C [everolimus] + CC1(C)NC(=O)N(c2ccc([N+](=O)[O-])c(C(F)(F)F)c2)C1=O [nilutamide] (first compound 0.02 µM, partner dose 1 µM) | 83.5% | 83% | 91.4% | 58.6% | 64.5% | 88.7% |
| Nc1ncn([C@H]2C[C@H](O)[C@@H](CO)O2)c(=O)n1 [decitabine] + Cn1cc(/C=C2\C(=O)Nc3cccnc32)c2ccccc21 [GW441756] (first compound 0.1 µM, partner dose 0.4 µM) | 84.3% | 77.9% | 88.5% | 107% | 102% | 95.8% |
| CC(=O)O[C@@]12CO[C@@H]1C[C@H](O)[C@@]1(C)C(=O)[C@H](O)C3=C(C)[C@@H](OC(=O)[C@H](O)[C@@H](NC(=O)OC(C)(C)C)c4ccccc4)C[C@@](O)([C@@H](OC(=O)c4ccccc4)[C@H]21)C3(C)C [Docetaxel] + NC1(c2ccc(-c3nc4ccn5c(=O)[nH]nc5c4cc3-c3ccccc3)cc2)CCC1 [MK2206] (first compound 0.0001 µM, partner dose 0.4 µM) | 48.7% | 34.7% | 53.1% | 37.4% | 58.6% | 62.2% |
| Nc1nc(F)nc2c1ncn2[C@@H]1O[C@H](CO)[C@@H](O)[C@@H]1O [fludarabine] + Cc1cc([N+](=O)[O-])ccc1NS(=O)(=O)c1cc(Cl)ccc1Cl [FH535] (first compound 0.2 µM, partner dose 1 µM) | 82.6% | 94.5% | 89.2% | 18.7% | 88.8% | 36.3% |
| CO[C@H]1C[C@@H]2CC[C@@H](C)[C@@](O)(O2)C(=O)C(=O)N2CCCC[C@H]2C(=O)O[C@H]([C@H](C)C[C@@H]2CC[C@@H](OCCO)[C@H](OC)C2)CC(=O)[C@H](C)/C=C(\C)[C@@H](O)[C@@H](OC)C(=O)[C@H](C)C[C@H](C)/C=C/C=C/C=C/1C [everolimus] + Nc1cccc2c1CN(C1CCC(=O)NC1=O)C2=O [lenalidomide] (first compound 0.02 µM, partner dose 1 µM) | 74.3% | 58.3% | 87.4% | 72.6% | 75.3% | 77.1% |
| Nc1ccn([C@@H]2O[C@H](CO)[C@@H](O)C2(F)F)c(=O)n1 [gemcitabine] + CC(=O)c1c(C)c2cnc(Nc3ccc(N4CCNCC4)cn3)nc2n(C2CCCC2)c1=O [palbociclib] (first compound 0.0004 µM, partner dose 0.04 µM) | 84.4% | 66.7% | 74% | 75.6% | 81% | 83.3% |
